{"source": "PubChem BioAssay AID1347165", "about": "(National Center for Advancing Translational Sciences (NCATS), 2019)", "note": "“And” between values parts separate entries of the source, which are not always exact repeats. Equal entries are not always repeated. About 5,700 (2.6%) of roughly 220,000 compounds were called active. Inconclusive results, whose numbers are uncertain, are shown with a selection of clear calls. Calls come from the whole dose curve; as a rule, active = well fitted inhibition curve with a large enough effect; inconclusive = small, poorly fitted or top-dose-only effect; inactive = no such curve, though single readings can be large or run the other way. Potencies beside an inconclusive call are fits to weak or partial responses and may not hold up. Potency is the fitted concentration of half-maximal effect; tags give direction and shape of the fitted curve.", "data": [{"molecular_target": "Lysine-specific demethylase 5B (Homo sapiens) (UniProt Q9UGL1)", "sequence (Q9UGL1 whole entry, looked up)": "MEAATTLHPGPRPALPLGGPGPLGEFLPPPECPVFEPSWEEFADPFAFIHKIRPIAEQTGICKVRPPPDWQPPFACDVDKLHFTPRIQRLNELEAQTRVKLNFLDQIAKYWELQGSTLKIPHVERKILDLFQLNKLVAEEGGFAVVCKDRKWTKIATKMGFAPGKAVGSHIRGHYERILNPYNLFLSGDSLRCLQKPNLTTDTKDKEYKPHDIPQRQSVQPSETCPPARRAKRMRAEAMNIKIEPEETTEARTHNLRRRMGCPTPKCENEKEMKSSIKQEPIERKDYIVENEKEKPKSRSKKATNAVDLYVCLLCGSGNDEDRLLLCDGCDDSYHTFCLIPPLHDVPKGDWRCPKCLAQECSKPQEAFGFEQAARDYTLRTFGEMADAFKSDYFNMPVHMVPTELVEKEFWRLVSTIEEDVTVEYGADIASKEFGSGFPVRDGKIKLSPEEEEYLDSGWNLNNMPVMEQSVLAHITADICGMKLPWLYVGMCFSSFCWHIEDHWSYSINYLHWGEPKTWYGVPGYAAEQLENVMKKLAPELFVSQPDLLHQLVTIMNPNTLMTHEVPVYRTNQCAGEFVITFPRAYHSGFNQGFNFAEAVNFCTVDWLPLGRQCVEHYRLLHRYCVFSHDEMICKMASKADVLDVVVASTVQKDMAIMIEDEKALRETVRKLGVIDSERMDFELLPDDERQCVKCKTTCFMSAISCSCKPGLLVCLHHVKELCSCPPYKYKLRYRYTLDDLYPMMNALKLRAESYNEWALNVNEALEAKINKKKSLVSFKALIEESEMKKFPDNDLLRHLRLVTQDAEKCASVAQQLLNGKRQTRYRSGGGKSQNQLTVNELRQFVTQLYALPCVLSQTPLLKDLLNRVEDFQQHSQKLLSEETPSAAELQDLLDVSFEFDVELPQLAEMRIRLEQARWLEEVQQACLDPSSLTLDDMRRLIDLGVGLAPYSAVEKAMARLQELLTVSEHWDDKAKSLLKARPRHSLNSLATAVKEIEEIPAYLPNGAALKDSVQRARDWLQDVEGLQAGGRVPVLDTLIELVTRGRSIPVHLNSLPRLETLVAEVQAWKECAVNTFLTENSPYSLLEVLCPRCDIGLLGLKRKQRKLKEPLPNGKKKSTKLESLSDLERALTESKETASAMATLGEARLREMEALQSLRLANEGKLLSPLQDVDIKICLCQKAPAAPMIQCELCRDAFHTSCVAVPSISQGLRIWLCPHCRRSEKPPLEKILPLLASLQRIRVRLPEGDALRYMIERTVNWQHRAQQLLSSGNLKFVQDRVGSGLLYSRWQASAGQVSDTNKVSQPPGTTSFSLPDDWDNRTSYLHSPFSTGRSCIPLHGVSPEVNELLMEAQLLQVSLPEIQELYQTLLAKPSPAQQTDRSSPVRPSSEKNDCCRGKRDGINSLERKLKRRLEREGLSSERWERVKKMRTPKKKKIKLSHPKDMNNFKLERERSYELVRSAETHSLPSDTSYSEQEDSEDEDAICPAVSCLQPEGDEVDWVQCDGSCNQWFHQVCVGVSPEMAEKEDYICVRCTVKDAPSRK", "test": "Primary screen for KDM5B Histone Demethylases FDH-coupled qHTS; note: nearly all actives have a fitted effect of over 70% in size; for activity change, negative = inhibition: 0% is about no effect", "settings": "FDH-coupled NADH fluorescence (FDH is formaldehyde dehydrogenase); activity change, negative = inhibition: at 57.7 µM (top of the series) unless noted", "procedure,_shortened": "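qHTS format, multiple compound concentrations. Buffer 50 mM HEPES pH 7.5/0.01% Tween-20; 200 nM KDM5BΔAP final; 10 min compound preincubation; substrate-mix levels 12.5 µM peptide, 25 µM α-KG, 0.25 mM NAD⁺; 30 min RT; ΔRFU.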", "values": [{"smiles": "Cc1noc([C@@H]2CN(Cc3cccc(F)c3F)C[C@H]2CO)n1", "Potency": "inactive"}, {"smiles": "O=C(Nc1ccc2nc(SCC(=O)N3CCCc4ccccc43)sc2c1)c1cccc(F)c1", "Potency": "inconclusive: 7.08 µM [inhibitor, partial curve, poor fit] and inconclusive: 14.1 µM [inhibitor, partial curve, poor fit]"}, {"smiles": "Fc1ccc(-n2ncc3c(NCCCN4CCOCC4)ncnc32)cc1", "Potency": "inconclusive: 31.6 µM [inhibitor, partial curve, poor fit]"}, {"smiles": "CC(C)C(=O)Nc1ccc(Br)cc1F", "Potency": "inactive"}, {"smiles": "O=S(=O)(Nc1ccc2oc(-c3ccc(Cl)cc3)nc2c1)c1ccccc1", "Potency": "inconclusive: 28.2 µM [inhibitor, partial curve, poor fit]"}, {"smiles": "COCCN1CC(CO)C2(CCN(Cc3ccc(C#N)cc3)CC2)C1", "note": "(stereo not given)", "Potency": "inconclusive: 20 µM [inhibitor, partial curve, poor fit]"}, {"smiles": "COc1ccc(-c2cc(N3CCCC(NC(=O)c4nccc5ccccc45)C3)n[nH]2)cc1", "note": "(stereo not given)", "Potency": "inconclusive: 28.2 µM [inhibitor, partial curve]"}, {"smiles": "COc1ccc(N2CCN(C(=O)c3ccc(N4CC5CC(C4)[C@H]4CCCC(=O)N4C5)nc3)CC2)cc1", "note": "(stereo not given in full)", "Potency": "inconclusive: 22.4 µM [inhibitor, partial curve, poor fit]"}, {"smiles": "COc1ccc2nc([C@H]3CCN(C4CCN(C(C)=O)CC4)C3)[nH]c2c1", "Potency": "inconclusive: 35.5 µM [inhibitor, single point]"}, {"smiles": "COc1ccc(NC(=O)c2nc(-c3ccccc3)n(-c3ccc(F)cc3)n2)c(OC)c1", "Potency": "inconclusive: 28.2 µM [inhibitor, single point]"}, {"smiles": "Cn1cnc(S(=O)(=O)NCCc2noc(-c3ccccc3)n2)c1", "Potency": "inactive"}, {"smiles": "O=C(Nc1ccc2oc(-c3ccccc3F)nc2c1)c1ccccc1Cl", "Potency": "inconclusive: 39.8 µM [inhibitor, partial curve, poor fit] and inconclusive: 28.2 µM [inhibitor, partial curve, poor fit]"}, {"smiles": "Fc1ccc(Br)cc1CNc1ccccc1", "Potency": "inactive"}, {"smiles": "NC(=O)CSc1ccc(C(F)(F)F)cn1", "Potency": "inactive"}, {"smiles": "CC(C)OP(=O)(OC(C)C)C(O)c1ccc(N(C)C)cc1", "note": "(stereo not given)", "Potency": "inactive"}, {"smiles": "CC(C)C[C@@H]1N[C@H](C(=O)NCCN(C)C)Cc2cn(Cc3ccccn3)c3cccc1c23", "Potency": "inconclusive: 56.2 µM [inhibitor, single point]"}, {"smiles": "CC(C)c1ccc(CNC(=O)c2cc3n(n2)CC(c2ccc4c(c2)OCO4)OC3)cc1", "note": "(stereo not given)", "Potency": "inconclusive: 28.2 µM [inhibitor, single point]"}, {"smiles": "O=C(C1CC=CC1)N1CCN(C(=O)N2CC3CC(C2)[C@H]2CCCC(=O)N2C3)CC1", "note": "(stereo not given in full)", "Potency": "inactive"}, {"smiles": "CCCN1CCCCC12Cc1ccccc1CN(C(=O)c1c(C)noc1C)C2", "note": "(stereo not given)", "Potency": "inconclusive: 50.1 µM [inhibitor, partial curve]"}, {"smiles": "COCCN(CCOC)C(=O)c1cc(-c2cccs2)nc2ccccc12", "Potency": "inconclusive: 25.1 µM [inhibitor, partial curve, poor fit]"}, {"smiles": "Cc1c(O)ccc2c(CN3CCN(Cc4ccccc4)CC3)cc(=O)oc12", "Potency": "inconclusive: 22.4 µM [inhibitor, partial curve, poor fit]"}, {"smiles": "Cc1ccc(Cl)cc1N1CCN(C(=O)c2cnc(N3CCOCC3)c3ccccc23)CC1", "Potency": "inconclusive: 39.8 µM [inhibitor, partial curve, poor fit]"}, {"smiles": "CCOC(=O)c1ccccc1NC(=O)N1CCc2c(sc(C)c2CC)C1c1ccccc1", "note": "(stereo not given)", "Potency": "inconclusive: 15.8 µM [inhibitor, partial curve, poor fit]"}, {"smiles": "COc1cc(OC)cc(C(=O)Oc2c(Sc3ccccc3)c(C)nn2C(C)(C)C)c1", "activity change, negative = inhibition": "inconclusive: -35.9% [inhibitor]"}, {"smiles": "CCNC(=O)N1CCCC(Cc2nc(C3CCOCC3)no2)C1", "note": "(stereo not given)", "Potency": "inactive"}, {"smiles": "O=C(Nc1ccc(-c2nnc3n2CCCC3)cc1)c1ccncc1", "Potency": "inactive"}, {"smiles": "Cc1ccc2c(COC(=O)CNC(=O)c3ccccc3)cc(=O)oc2c1C", "Potency": "inactive"}, {"smiles": "O=C(O)c1ccc(F)c(F)c1F", "Potency": "inactive"}, {"smiles": "O=C(O)c1ccccc1C1Nc2ccccc2C(=O)N1CCCN1CCOCC1", "note": "(stereo not given)", "Potency": "inconclusive: 28.2 µM [inhibitor, single point]"}, {"smiles": "CCCC(=O)Nc1ccc(-c2nc3ccc(C)cc3o2)cc1", "Potency": "inconclusive: 7.08 µM [inhibitor, partial curve, poor fit]"}, {"smiles": "CC1CCN(C(=O)CSc2nnc(-c3ccccc3Cl)n2C2CCCC2)CC1", "Potency": "inactive"}, {"smiles": "Nc1ccccc1CN1CCCC2(Cc3ccccc3CNC2=O)C1", "note": "(stereo not given)", "Potency": "inconclusive: 28.2 µM [inhibitor, full curve]"}, {"smiles": "O=C(CCSc1nc(-c2ccco2)cc(C(F)(F)F)n1)Nc1cccc(O)c1", "Potency": "inconclusive: 7.08 µM [inhibitor, partial curve, poor fit]"}, {"smiles": "O=C(c1cccnc1)N1CCc2cc(NS(=O)(=O)c3ccccc3)ccc21", "Potency": "inactive"}, {"smiles": "Cc1nc(NCC2CC2)ncc1C(=O)O", "Potency": "active: 22.4 µM"}, {"smiles": "CCc1ccc(CNC(=O)c2sc3ncccc3c2-n2c(C)ccc2C)cc1", "Potency": "inconclusive: 15.8 µM [inhibitor, partial curve, poor fit]"}, {"smiles": "Cc1ccc(-c2nc3cc(C(C)C)ccc3o2)cc1NC(=O)c1cc2ccccc2o1", "Potency": "inconclusive: 44.7 µM [inhibitor, single point]"}, {"smiles": "CC(NCc1ccc([N+](=O)[O-])cc1)C1COc2ccccc2O1", "note": "(stereo not given)", "Potency": "inconclusive: 15.8 µM [inhibitor, partial curve, poor fit]"}, {"smiles": "Cc1cc(C(=O)N2CCC3(CC2)CC(C(=O)N2CCOCC2)N(C)C3)nn1C", "note": "(stereo not given)", "Potency": "inactive"}, {"smiles": "CC1CCN(C(=O)COC(=O)c2ccccc2NC(=O)c2ccco2)CC1", "Potency": "inconclusive: 39.8 µM [inhibitor, single point]"}, {"smiles": "Cc1ccc(C)n1-c1nnc(N2CCCC(C(=O)NCc3ccc(Cl)cc3)C2)s1", "note": "(stereo not given)", "Potency": "inconclusive: 1.26 µM [inhibitor, partial curve, poor fit]"}, {"smiles": "Cc1ccc(CN2CCc3nc(N4CCN(c5ncccn5)CC4)ncc3C2)cc1", "Potency": "inconclusive: 39.8 µM [inhibitor, single point]"}, {"smiles": "CCCCc1ccc2nc(NC(=O)c3ccc(F)cc3)sc2c1", "Potency": "inconclusive: 1.78 µM [inhibitor, partial curve, poor fit]"}, {"smiles": "CN1CC(=O)N(C2CCNC2)Cc2c1ncnc2N(C)Cc1ccc(F)cc1", "note": "(stereo not given)", "Potency": "inactive"}, {"smiles": "CCOC(=O)C1CCN(c2ncnc3c2c(-c2ccccc2)cn3-c2cccc(C)c2)CC1", "Potency": "inconclusive: 35.5 µM [inhibitor, partial curve, poor fit]"}, {"smiles": "Cc1oc2c(c(C)cc3oc(=O)c(CC(=O)NCCc4ccccc4F)c(C)c32)c1C", "Potency": "inactive"}, {"smiles": "CCCCNC(=O)NC(C(N)=O)C(N)=O", "Potency": "inactive"}, {"smiles": "COc1ccc(NC(=O)CSc2nc3c(=O)[nH]cnc3n2C)c(OC)c1", "Potency": "inactive"}, {"smiles": "Cc1ccc(Cn2c(C(=O)O)c(CNCc3ccccc3Cl)c3ccc(C)cc32)cc1", "activity change, negative = inhibition": "inconclusive: -30.1% [inhibitor]"}, {"smiles": "COc1cc(-c2ccnc3nc(-c4cccs4)nn23)cc(OC)c1OC", "Potency": "active: 14.1 µM"}, {"smiles": "CN(C)C(CNC(=O)c1ccc(Br)o1)c1ccccc1", "note": "(stereo not given)", "Potency": "inactive"}, {"smiles": "Cc1noc(-c2ccn3c(CNC(=O)c4ccc(N(C)C)cc4)nnc3c2)n1", "Potency": "inconclusive: 39.8 µM [inhibitor, partial curve, poor fit]"}, {"smiles": "CC[C@@]1(C(=O)O)C[C@H](C(=O)NCCOC)[C@H](c2ccc(OC)cc2)N1C", "Potency": "inconclusive: 15.8 µM [inhibitor, partial curve]"}, {"smiles": "CCc1nc2c(c(-c3ccc(Cl)cc3)n1)CN(Cc1cccc(F)c1)CC2", "Potency": "inconclusive: 17.8 µM [inhibitor, single point]"}, {"smiles": "COc1ccccc1/C=C/C(=O)Oc1ccc(Cl)c(Cl)c1", "Potency": "inactive"}, {"smiles": "Cc1nc(-c2ccc(Cl)cc2)sc1CCNC(=O)C(=O)Nc1ccc(F)cc1F", "Potency": "inactive"}, {"smiles": "Cc1cc(C)c(Cn2c3ccccc3c3cnn(CC(=O)NC4CCC(C)CC4)c(=O)c32)c(C)c1", "note": "(stereo not given)", "Potency": "inconclusive: 35.5 µM [inhibitor, single point]"}, {"smiles": "O=C(Cn1c(=O)oc2cc(S(=O)(=O)N3CCCCC3)ccc21)Nc1cccc(Cl)c1", "Potency": "inconclusive: 28.2 µM [inhibitor, single point]"}, {"smiles": "CC(C)N(Cc1cccc(Cl)c1)S(=O)(=O)c1cnn(C)c1", "Potency": "inactive"}, {"smiles": "CCCc1nn2c(=O)cc(COC(=O)c3cccc(NC(=O)COc4ccc(F)cc4)c3)nc2s1", "Potency": "inconclusive: 12.6 µM [inhibitor, partial curve, poor fit]"}, {"smiles": "C#CCOc1ccc(C(=O)Nc2ccc3ccccc3c2)cc1", "Potency": "inconclusive: 25.1 µM [inhibitor, partial curve, poor fit]"}, {"smiles": "CCOC(=O)c1scc(-c2ccccc2)c1S(=O)(=O)Nc1ccccc1F", "Potency": "inconclusive: 15.8 µM [inhibitor, partial curve, poor fit]"}, {"smiles": "CCCN1C=NS(=O)(=O)c2cc(C(=O)NC3CCCCC3)ccc21", "Potency": "inactive"}, {"smiles": "COCc1nnc2n1CCC(NC(=O)c1ccn(C)n1)CC2", "note": "(stereo not given)", "Potency": "inactive"}, {"smiles": "Cc1nn(-c2ccccc2)c(C)c1CN(C)S(=O)(=O)c1cc(F)cc(F)c1", "Potency": "inactive"}, {"smiles": "Cc1ccc(/C(O)=C2\\C(=O)C(=O)NC2c2ccc(Br)cc2)cc1", "note": "(stereo not given)", "Potency": "inactive"}, {"smiles": "Cc1cc(CN2CCCC(CCNC(=O)C3(N)CC3)C2)oc1C", "note": "(stereo not given)", "Potency": "inactive"}, {"smiles": "COc1ccc(CNC(=O)C2=C(c3ccccc3)c3cc(Cl)ccc3S(=O)(=O)N2C)c(OC)c1", "Potency": "inactive"}, {"smiles": "Cc1ccccc1CN1CCC2OCCN(CCc3ccccc3)C(=O)C2C1", "note": "(stereo not given)", "Potency": "inactive"}, {"smiles": "COc1ccccc1NC(=O)Cn1c(N2CCc3ccccc3C2)nc(C)cc1=O", "Potency": "inconclusive: 28.2 µM [inhibitor, partial curve, poor fit]"}]}]}
